Measurements published in PubChem BioAssay AID493208 (National Center for Advancing Translational Sciences (NCATS), 2011).
The whole screen tested about 44,000 compounds, of which about 340 (0.77%) were called active. Inconclusive results (about 5%) are left out. Calls come from the whole dose curve; as a rule, active = well fitted inhibition curve with a large enough effect; inconclusive = small, poorly fitted or top-dose-only effect; inactive = flat fitted curve, though single readings scatter. The list shows a part of the results.

Test: Acumen qHTS Assay for Inhibitors of the mTORC1 Signaling Pathway in MEF (Tsc2-/-, p53-/-) Cells: Sytravon;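 note: plate controls were DMSO for no effect and rapamycin for full effect; nearly all actives have a fitted effect of over 50% in size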
Conditions: phospho-rpS6 immunofluorescence/PI, 24 h; series mostly up to 38.3 µM; activity change, negative = inhibition: at the top concentration
Method in brief: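 Tsc2-/-, p53-/- MEFs (empty-vector stable line) in DMEM + 10% FBS were treated with compounds 24 h at 37 degree Celsius, fixed, and immunostained for phospho-rpS6 (Alexa-488) with propidium iodide counterstain. Laser-scanning cytometry gave % positive cells, normalized against 7.5 nM rapamycin and DMSO.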

Activity change, negative = inhibition, inactive:
COc1ccc(-c2[nH]c(-c3cccc(OC)c3)nc2SCC(=O)NC2CCCC2)cc1 -14.3%
COc1ccc(-c2cn3nc(N4CCCC(C(=O)Nc5cc(C)cc(C)c5)C4)sc3n2)cc1 (stereo not given) 0.839%
CCN(CC)S(=O)(=O)c1ccc(C(=O)N2CC(=O)Nc3ccc(F)cc3C2c2ccccc2)cc1 (stereo not given) -0.755%
O=C(C1CCN(S(=O)(=O)c2ccc(Br)s2)CC1)N1CCN(c2ccccc2)CC1 -16.5%
CC(C)(C)OC(=O)N1CCC(c2c(C(=O)NCCc3ccccc3)cnn2-c2ccc(F)cc2)CC1 6.75%
COc1ccc(CCN2C(=O)NC(NS(=O)(=O)c3ccc(NC(C)=O)cc3)(C(F)(F)F)C2=O)cc1OC (stereo not given) -6.27%
CC(=O)Nc1ccc2nc(SCCOc3cc(C)cc(C)c3)sc2c1 -11.2%
COc1cc(NC(=O)c2c(C)oc3c2C2=NCCN2C=N3)cc(OC)c1OC -9.34%
CCc1ccc(-c2nn(CC(=O)NCc3ccccc3)c3c2cnc2ccc(F)cc23)cc1 -3.32%
COc1ccc(OCC(=O)NCc2ccc3c(c2)CCN3C(=O)c2ccc(F)cc2)cc1 -14.4%
COc1cc(NC(=O)COCc2cc(-c3ccc4c(c3)OCO4)on2)cc(OC)c1 -9.74%
Cc1ccc(-n2c(=O)c3c(cnn3C)n(Cc3ccccc3F)c2=O)cc1 -6.63%
Cn1c2ccccc2c2cnn(CC(=O)Nc3ccccc3C(F)(F)F)c(=O)c21 -7.18%
CCn1cc(S(=O)(=O)c2ccccc2)c(=O)c2cc(F)c(N3CCN(c4ccccc4)CC3)cc21 -6.76%
CCN(CC)C(=O)c1sc2c(c1C)c(=O)n(-c1ccc(OC)cc1OC)c(=O)n2CC(=O)c1ccc(Cl)cc1 -2.81%
COc1cc(NC(=O)c2oc3c(c2C)-c2nn(Cc4cccc(Cl)c4)cc2CC3)cc(OC)c1 8.39%
N#Cc1ccc(C(=O)Nc2ccc3c(c2)N(C2CCCC2)C(=O)c2ccccc2S3)cc1 -0.803%
CC(C)Sc1ncc(Cl)c(C(=O)N(Cc2ccc(N(C)C)cc2)C2CCS(=O)(=O)C2)n1 (stereo not given) 0.145%
CCc1nn(CC(=O)Nc2ccc(N(CC)CC)cc2C)c(=O)c2cc3sccc3n12 3.56%
Cc1nn(-c2ccc(N3CCCC3)nn2)c(C)c1CCC(=O)Nc1ccc(F)c(Cl)c1 -7.08%
Cc1ccc(-c2noc(-c3ccccc3NC(=O)C3CC(=O)N(c4ccccc4C)C3)n2)cc1 (stereo not given) -28.4%
CCn1ccc2c(OCC(=O)NCc3ccc(F)cc3)cccc2c1=O -14.2%
CC(C)Cn1c(=O)c2ccccc2n2c(CCC(=O)NC(C)c3ccccc3)nnc12 (stereo not given) 1.8%
Cc1cc(C)c2nc(N(Cc3cccnc3)C(=O)c3cccs3)sc2c1 -9.36%
CCOc1ccc(C2C(C(=O)Nc3ccccc3)=C(C)Nc3nc(SCc4cc(C)ccc4C)nn32)cc1 (stereo not given) -1.39%
COc1cccc2cc(-c3nnc(Nc4c(F)cccc4F)s3)c(=O)oc12 -0.686%
CSc1ncc(C(=O)N2CCN(c3cc(Cl)ccc3C)CC2)c(C)n1 -5.59%
CCCN(C(=O)CCc1nc(-c2ccc(OC)cc2)no1)c1ccccc1F -1.01%
COc1cc(-c2nc(Cn3nnc(C(=O)Nc4ccc(C)cc4C)c3C)c(C)o2)cc(OC)c1OC 2.48%
Cc1oc(-c2ccccc2F)nc1CS(=O)(=O)CC(=O)NCCc1ccc(Cl)cc1 -9.1%
COc1ccc(N2CCN(c3oc(-c4ccc(COc5cccc(C)c5)o4)nc3C#N)CC2)cc1 -5.97%
COc1ccc(CC(=O)NCCc2csc3nc(-c4ccccc4F)nn23)cc1 -14.9%
Cc1ccc(NC(=O)CN(C)S(=O)(=O)c2ccc3[nH]c4c(c3c2)CCCC4)c(Cl)c1 -0.111%
Cc1cccc(NC(=O)c2sc3nc(N4CCOCC4)c4c(c3c2N)CC(C)(C)OC4)c1 -13.6%
COc1ccc(NC(=O)Cn2ncc3c2-c2ccccc2OC3)cc1Cl -2.48%
O=C(CSc1nc2c([nH]c3ccccc32)c(=O)n1-c1ccccc1)Nc1ccc2c(c1)OCCO2 -3.99%
COc1ccccc1C(=O)Nc1ccc(OCc2cc(=O)n3ccsc3n2)cc1 -5.57%
CCN(CCCNC(=O)c1cc2c(Cl)nc3ccccc3c2s1)Cc1ccccc1 -26%
Cc1ccc(C)c2sc(N3CCN(C(=O)C(C)(C)C)CC3)nc12 -8.99%
CCOc1ccc(CCNC(=O)c2ccc(-n3c(C)cc4c3CCC(C)C4)cc2)cc1OCC (stereo not given) -9.46%
CC1=C(C(=O)Nc2ccc(C)cc2Cl)C2(CCCCCC2)OC1=O -5.81%
CC(=O)N1c2ccc(S(=O)(=O)NCCC(=O)Nc3ccc(Br)c(C)c3)cc2CC1C (stereo not given) -9.4%
CCC(=O)c1cc2c(cc1NC(=O)c1ccccc1F)OCCO2 0.315%
COc1ccc(N2CC(NC(=O)c3ccc(S(=O)(=O)N4CCOCC4)cc3)CC2=O)cc1OC (stereo not given) -2.5%
CCCCNC(=O)C1CCC(CNS(=O)(=O)c2ccc(Cl)cc2)CC1 (stereo not given) -8.03%
CC(C)(C)c1ccc(-c2nc(SCC(=O)Nc3ccc(Cl)cc3)[nH]c(=O)c2C#N)cc1 -7.64%
CC(=O)NCCn1c(SCC(=O)Nc2ccc(C)cc2)nc2ccccc2c1=O 1.54%
COc1cccc(-n2c(-c3cccc(F)c3)nc3c(cnn3-c3ccc(C)cc3)c2=O)c1 -14.9%
Cc1c(-c2ccc(Cl)cc2)c(=O)oc2ccc(OC(=O)N3CCOCC3)cc12 0.264%
COc1ccccc1CNC(=O)CC(c1ccc(OC)c(OC)c1)N1Cc2ccccc2C1=O (stereo not given) 1.7%
CCc1cnc2c(c1SCC(=O)c1ccc(OC)cc1)c(=O)n(C)c(=O)n2C -0.319%
CCN(Cc1ccccc1)c1ncnc2c1nnn2C -1.92%
COc1ccc(OC)c(/C=C/C(=O)Nc2ccc(C(=O)OCCC(C)C)cc2)c1 10.8%
O=S(=O)(NCc1ccc(Cl)cc1)c1ccc(-c2cnc(C3CC3)o2)cc1 11.2%
Cc1ccccc1CN1C(=O)c2ccccc2Sc2ccc(C(=O)NC3CCCC3)cc21 11.4%
CCCCN(CCCC)C(=O)C1CCN(S(=O)(=O)c2cccc3nsnc23)CC1 -2.74%
Cc1ccc(Cl)cc1-n1ncc2c(N3CCCCCC3)ncnc21 0.171%
O=C(NCc1ccc(F)cc1)c1cc(-c2ccc(Cl)cc2)n[nH]1 -9.87%
O=C(Nc1cccnc1)c1cc(-c2cccc(Cl)c2)on1 6.09%
CCC(C)NC(=O)CCSc1nc(-c2ccc(OC)cc2)cc(C(F)(F)F)n1 (stereo not given) 0.871%
